The values below come from patent US20190002581A1 (SUTRO BIOPHARMA, published 2019).

T1: cynomolgus EpCAM (Biacore) (cynomolgus monkey, limits assumed)
T1 construct: Construct used for the cyno Biacore measurements is not described; also called Cyno EpCAM (Biacore); cEpCAM
T1 chain: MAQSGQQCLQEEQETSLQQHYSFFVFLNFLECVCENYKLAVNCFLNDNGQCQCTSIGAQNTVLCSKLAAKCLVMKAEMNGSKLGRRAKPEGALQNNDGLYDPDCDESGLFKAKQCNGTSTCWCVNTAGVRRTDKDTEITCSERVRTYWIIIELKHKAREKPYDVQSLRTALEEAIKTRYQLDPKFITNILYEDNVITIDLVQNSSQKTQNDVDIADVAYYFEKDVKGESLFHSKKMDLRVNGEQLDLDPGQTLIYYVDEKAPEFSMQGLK

T2: cynomolgus EpCAM expressed on stably transfected CHO cells (cynomolgus monkey, UniProt Q1WER1 26-314 (rhesus entry))
T2 construct: also called Cyno EpCAM (CHO)
T2 sequence: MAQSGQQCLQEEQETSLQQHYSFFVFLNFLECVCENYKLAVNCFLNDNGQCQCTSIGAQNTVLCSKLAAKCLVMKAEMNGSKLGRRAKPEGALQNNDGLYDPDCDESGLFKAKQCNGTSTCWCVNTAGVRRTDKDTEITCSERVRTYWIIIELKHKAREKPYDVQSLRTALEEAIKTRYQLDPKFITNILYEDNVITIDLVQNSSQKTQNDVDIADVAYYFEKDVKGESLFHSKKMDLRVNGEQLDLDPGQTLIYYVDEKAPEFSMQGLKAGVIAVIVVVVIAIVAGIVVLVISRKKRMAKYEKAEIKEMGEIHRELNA

T3: human EpCAM expressed on cells (stably transfected CHO cells, HCT-116, JIMT1) (human, UniProt P16422 24-314)
T3 construct: also called Human EpCAM (CHO); Human EpCAM (HCT-116)
T3 sequence: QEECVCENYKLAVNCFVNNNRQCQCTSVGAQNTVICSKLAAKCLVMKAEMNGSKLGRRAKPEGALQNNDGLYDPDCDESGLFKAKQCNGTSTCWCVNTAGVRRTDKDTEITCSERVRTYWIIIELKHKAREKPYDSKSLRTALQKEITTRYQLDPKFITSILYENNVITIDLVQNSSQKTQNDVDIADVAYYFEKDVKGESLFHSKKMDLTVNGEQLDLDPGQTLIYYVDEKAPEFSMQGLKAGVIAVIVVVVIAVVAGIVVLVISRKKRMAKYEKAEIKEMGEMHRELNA

T4: human EpCAM-His (analyte of the Biacore experiments) (human, UniProt P16422 24-265)
T4 construct: also called Human EpCAM (Biacore); hEpCAM
T4 sequence: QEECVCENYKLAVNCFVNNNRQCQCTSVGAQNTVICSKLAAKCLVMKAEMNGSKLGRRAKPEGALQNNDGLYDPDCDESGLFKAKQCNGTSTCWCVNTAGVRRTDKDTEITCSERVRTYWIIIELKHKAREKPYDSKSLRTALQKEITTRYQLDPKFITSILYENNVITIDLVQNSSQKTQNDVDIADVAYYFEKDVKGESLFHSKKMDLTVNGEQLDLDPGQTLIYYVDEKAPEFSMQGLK

B1: SRP1557-A04 scFv-Fc antibody (Fc fusion)
chain: MEVQLLESGGGLVQPGGSLRLSCAASGFTFSGSSMSWVRQAPGKGLEWVGAIDGGEGSTAYADSVKGRFTISRDNSKNTLYLQMNSLRAEDTAVYYCAKGWHPQTMYDLDYWGQGTLVTVSSGGGGSGGGGSGGGGNEIVLTQSPGTLSLSPGERATLSCRASQNVSTNYLAWYQQKPGQAPRLLIYGASSRATGIPDRFSGSGSGTDFTLTISRLEPEDFAVYYCQQLVTNPPTFGQGTKVEIKAAGSDQ[letters of human IgG1 Fc with changes omitted]GSGDYKDDDDKGSGHHHHHH
notes: scFv-Fc format; the entry holds scFv, IgG1 Fc, FLAG and His tags
B2: SRP1557-B03 scFv-Fc antibody (Fc fusion)
chain: MEVQLLESGGGLVQPGGSLRLSCAASGFTFRSSSMSWVRQAPGKGLEWVGAIGGHEGYTGYADSVKGRFTISRDNSKNTLYLQMNSLRAEDTAVYYCAKGWNPQTLYHLDYWGQGTLVTVSSGGGGSGGGGSGGGGSEIVLTQSPGTLSLSPGERATLSCRASQKCSSSSMAWYQQKPGQAPRLLIYGASSRATGIPDRFSGSGSGTDFTLTISRLEPEDFAVYYCQQLQTSPPTFGQGTKVEIKAAGSDQ[letters of human IgG1 Fc with changes omitted]GSGDYKDDDDKGSGHHHHHH
notes: as for B1
B3: SRP1557-A05 scFv-Fc antibody (Fc fusion)
chain: MEVQLLESGGGLVQPGGSLRLSCAASGFTFGGSSMSWVRQAPGKGLEWVGAIGGGEGSTGYADSVKGRFTISRDNSKNTLYLQMNSLRAEDTAVYYCAKGWHDQSLYDRDYWGQGTLVTVSSGGGGSGGGGSGGGGSEIVLTQSPGTLSLSPGERATLSCSASQTVSSSYIAWYQQKPGQAPRLLIYGASSRATGIPDRFGGSGSGTDFTLTISRLEPEDFAVYYCQQLLTSPPTFGQGTKVEIKAAGSDQ[letters of human IgG1 Fc with changes omitted]GSGDYKDDDDKGSGHHHHHH
notes: as for B1
B4: SRP1557-B10 scFv-Fc antibody (Fc fusion)
chain: MEVQLLESGGGLVQPGGSLRLSCAASGFTFSGCSMSWVRQAPGKGLEWVGAIAGGEGNTGYADSVKGRFTISRDNSKNTLYLQMNSLRAEDTAVYYCAKGWHPQTLYDLDYWGQGTLVTVSSGGGGSGGGGSGGGGSEIVLTQSPGTLSLSPGERATLSCRASQGLASRYMAWYQQKPGQAPRLLIYGASSRATGIPDRFSGSGSGTDFTLTISRLEPEDFAVYYCQQVMTIPPTFGQGTKVEIKAAGSDQ[letters of human IgG1 Fc with changes omitted]GSGDYKDDDDKGSGHHHHHH
notes: as for B1
B5: SRP1557-G04 scFv-Fc antibody (Fc fusion)
chain: MEVQLLESGGGLVQPGGSLRLSCAASGFTFCGSSMSWVRQAPGKGLEWVGAIDGGVGSTGYADSVKGRFTISRDNSKNTLYLQMNSLRAEDTAVYYCAKGWHPQTLYDLDYWGQGTLVTVSSGGGDSGGGGSGGGGSEIVLTQSPGTLSLSPGERATLSCRASQSVSSSYLAWYQQKPGQAPRLLIYGASSRATGIPDRFSGSGSGTDFTLTISRLEPEDFAVYYCQQDSFVPPTFGQGTKVEIKAAGSDQ[letters of human IgG1 Fc with changes omitted]GSGDYKDDDDKGSGHHHHHH
notes: as for B1
B6: SRP1557-F05 scFv-Fc antibody (Fc fusion)
chain: MEVQLLESGGGLVQPGGSLRLSCAASGFTFRGSSMSWVRQAPGKGLEWVGAIDGGEGSTGYADSVKGRFTISRDNSKNTLYLQMNSLRAEDTAVYYCAKDWHPQTLYDLDYWGQGTLVTVSSGGGGSGGGGSGGGGSEIVLTQSPGTLSLSPGERATLSCRASQTVSPSVLAWYQQKPGQAPRLLIYGASSRATGIPGRFSGSGSGTDFTLTISRLEPEDFAVYYCQQLVTNPPTFGQGTKVEIKAAGSDQ[letters of human IgG1 Fc with changes omitted]GSGDYKDDDDKGSGHHHHHH
notes: as for B1
B7: SRP1304-G11 scFv-Fc antibody (Fc fusion)
chain: MEVQLLESGGGLVRPGGSLRLSCAASGFTFSGSSMSWVRQAPGKGLEWVGAIDGGDGYTNYADSVRGRFTISRDNSKNTLYLQMNSLRAEDTAVYYCAKGWHPQTYYGLDYWGQGTLVTVSSGGGGSGGGGSGGGGSEIVLTQSPGTLSLSPGERATLSCRASQSVSSSYLAWYQQKPGQAPRLLIYGASSRATGIPDRFSGSSSGTDFTLTISRLEPEDFAVYYCQQYWYGPPTFGQGTKVEIKAAGSDQ[letters of human IgG1 Fc with changes omitted]GGSHHHHHH
notes: scFv-Fc format

The first experiment concerns the target T1, cynomolgus EpCAM (Biacore). The experiment can be described thus: SPR (Biacore), cyno EpCAM. For orientation: Surface plasmon resonance follows binding to a sensor surface in real time, without labels.
Molecule B1 came in with a Kd of 18.2 nM.
Same read-out and setting: next, B2: 120 nM.
With B3, binding was characterised by a dissociation constant (Kd) of 22.9 nM.
As to B4, the Kd worked out at 39.9 nM.

The target of a further experiment is T2, cynomolgus EpCAM expressed on stably …. Nature of the experiment: flow cytometry, CHO cells expressing cyno EpCAM. How it is done: (§1) CHO-k cells were transfected to stably express EpCAM on the cell surface. CHO parental and stably transfected CHO-EpCAM (human, cynomolgus and mouse EpCAM-expressing cells) cells were washed with DPBS, detached with Accutase™ (BD Biosciences; San Jose, Calif.), and resuspended in ice-cold FACS buffer (DPBS buffer supplemented with 0.5% bovine serum albumin).
(§2) A total of 200,000 cells per 96-well were incubated on ice for 60 mins with 100 nM of test antibodies diluted in FACS buffer. Cells were washed twice with FACS buffer and incubated on ice for 30 mins with R-phycoerythrin AffiniPure F(ab′)₂ fragment, goat anti-Human IgG, Fcγ fragment specific secondary detection antibody (Jackson ImmunoResearch Laboratories, West Grove, Pa.) diluted at 1:200 with FACS buffer. Cells were washed twice with FACS buffer, fixed in 4% paraformaldehyde in PBS (Santa Cruz Biotechnology; Dallas, Tex.) for 20 mins on ice in the dark, washed twice with FACS buffer and analyzed using the BD LSR II Flow Cytometer (BD Biosciences; San Jose, Calif.). Data were analyzed using FlowJo (FlowJo, LLC; Ashland, Oreg.) to determine mean fluorescence intensities. Binding constants were calculated using the statistical software, GraphPad Prism (GraphPad Software; La Jolla, Calif.) using the nonlinear regression equation, one site-specific binding with Hill slope. Secondary antibody alone was used as a control, in addition to measuring non-specific EpCAM antibody binding to CHO parental cells. For some variants, binding to human tumor cells, HCT 116 and JIMT1 cells were also evaluated.
(Flow cytometry measures light scatter and fluorescence of single cells or particles in a stream.)
Turning to B1, the dissociation constant (Kd) was determined as 2.5 nM.
Still for that read-out and setting: the figure for B2 is 1.59 nM; for B5 it is 1.83 nM; for B6 it is 2.99 nM.
On the same count and under the same terms, next, B3: 1.83 nM.
As to B4, the Kd worked out at 1.35 nM.

The next experiment concerns the target T3, human EpCAM expressed on cells (stably …). Nature of the experiment: flow cytometry, CHO cells expressing human EpCAM. How it is done:
as §1, §2
The molecule B7 showed a Kd of 3 nM.
On the same count and under the same terms, the figure for B1 is 1.85 nM.
The molecule B2 returned a Kd of 1.45 nM.
On to B5, for which the affinity, expressed as Kd, was 3.68 nM.
Same read-out and setting: next, B6: 3.24 nM; B3: 2.49 nM; B4: 1.71 nM.

Another experiment deals with T4, human EpCAM-His (analyte of the Biacore …). Nature of the experiment: SPR (Biacore), scFv-Fc captured on anti-FLAG, human EpCAM-His as analyte, 25 C. How it is done:
Monoclonal Anti-FLAG M2 IgG (Sigma-Aldrich # F9291) was immobilized onto a CMS chip (GE Life Sciences) using amine coupling chemistry (from Amine Coupling Kit, GE Life Sciences). The immobilization steps were carried out at a flow rate of 25 μL/min in 1×HBS-EP+ buffer (GE Life Sciences; 10× Stock diluted before use). The sensor surfaces were activated for 7 min with a mixture of NHS (0.05 M) and EDC (0.2 M). The Anti-Flag M2 IgG was injected over all 4 flow cells at a concentration of 25 μg/mL in 10 mM sodium acetate, pH 4.5, for 7 min. Ethanolamine (1 M, pH 8.5) was injected for 7 min to block any remaining activated groups. An average of 12,000 response units (RU) of capture antibody was immobilized on each flow cell.
Off-rate and Kinetic binding experiments were performed at 25° C. using 1×HBS-EP+ buffer. Test and control antibodies were injected over the Anti-FLAG surface at concentrations of 5-10 μg/mL for 12 seconds at a flow rate of 10 μL/min on flow cells 2, 3 and 4, followed by a buffer wash for 30 seconds at the same flow rate. Kinetic characterization of antibody samples was carried out with a single concentration of antigen (for off-rate ranking) or a 1:2 dilution series of antigen (for kinetic characterization) and 1 injection of 0 nM antigen. After capturing ligand (antibody) on the anti-FLAG surface, the analyte (human EpCAM-His) was bound at 50, 25, 12.5, 6.25 and 0 nM for 180 seconds, followed by a 600 second dissociation phase at a flow rate of 50 μl/min. Between each ligand capture and analyte binding cycle, regeneration was carried out using 2 injections of 10 mM glycine pH 2.0 for 30 seconds at 30 μL/min, followed by a 30 second buffer wash step.
The data were fit with the Biacore T200 Evaluation software, using a 1:1 Langmuir binding model. KD (affinity, nM) was determined as a ratio of the kinetic rate constants calculated from the fits of the association and dissociation phases.
Take B7: the affinity, expressed as Kd, was 3.99 nM; the koff was 0.000412 s⁻¹; the kon turned out to be 103000 M⁻¹ s⁻¹.
For B1 the same measures were 1.78 nM, 0.000375 s⁻¹ and 210000 M⁻¹ s⁻¹.
In turn, B2 registered a dissociation constant Kd of 3.43 nM, a koff of 0.00051 s⁻¹ and a kon of 149000 M⁻¹ s⁻¹.
For B3 the same measures were 3.56 nM, 0.000784 s⁻¹ and 220000 M⁻¹ s⁻¹.
B4 gave a Kd of 4.17 nM, a koff of 0.000598 s⁻¹ and a kon of 143000 M⁻¹ s⁻¹.

For orientation: Kd means a measure of binding affinity in units of concentration. Read a low Kd as higher affinity. In general, koff refers to a measure of how fast the partners let go of each other. A low value points to slow dissociation. As a reminder, the kon is the second-order rate constant of association. A low value points to slower complex formation.
